The list shows a part of the results. Each Rep nickase domain was tested in vitro on the same pool of single strands (1 h at 37 °C, 3 µM enzyme); the outer parts of the 90-letter strands are left off. Uncut reads are compared with the no-enzyme pool on a log2 scale; strong cutting gives strongly negative numbers. There is no active / inactive call. Counts are relative to all reads, so uncut sequences can rise above 0 when many others are cut.
tested on: T1, Rep nickase domain of tomato golden mosaic virus; assay: uncleaved DNA left, log2 of reads against the no-enzyme library (log2 ratio); higher = less cleavage (more negative = more Rep cleavage of the k-mer); sequences stand for … in CTCGTCCG…ACCGGAGA
T1 sequence (residues 1-124, tag not shown): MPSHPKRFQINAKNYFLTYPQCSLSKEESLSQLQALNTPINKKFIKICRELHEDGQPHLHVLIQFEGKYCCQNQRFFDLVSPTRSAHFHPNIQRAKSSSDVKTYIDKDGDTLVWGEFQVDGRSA
Experimental: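 A pool of 90-nt single-stranded DNAs with seven random bases just before the constant AC of the nick site (name = the seven bases) was cut by 3 µM recombinant His6-SUMO-tagged Rep nickase domain (300 nM DNA, 50 mM HEPES pH 8.0, 50 mM NaCl, 1 mM MnCl2, 1 h, 37 °C, three replicates). Uncut DNA was amplified and sequenced.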

Sequence	uncleaved DNA left (log2)
GACTAGG	0.242
GACCACA	0.0818
ACCCAAG	0.122
TCACCTC	-0.0393
TACTTGT	-0.0725
GGCTTGC	0.0664
TGCTGTT	-0.062
TACTAGG	0.125
TGCAGTG	0.00602
CTACATA	-0.107
CATTTTT	-1.47
CCCTCCT	-0.15
TGAGCTA	0.136
CTCTCTT	-0.128
AGCATAA	0.0256
GTATGAG	0.122
CTGCAGA	-0.0879
TTGCGTC	-0.252
CTCACCT	-0.0632
ATGGATT	0.262

Sequence	uncleaved DNA left (log2)
ATAATCA	0.00356
GTAATGA	0.0852
AGACTTG	-0.0556
GAATCTT	-2.92
TACAGTC	-0.0973
CAAAATC	0.0508
TACGCTA	-0.0558
GTTCTGG	-0.0662
CCGGAGT	-0.0489
GTGGACT	0.0961
ACCCTGG	0.025
ACAATCG	-0.0075
CACTACT	-0.933
AAAAAGC	0.157
ATCTTCC	-0.0905
GGGGCAC	0.00966
ACGAGTG	0.0186
AGTGAAC	0.0425
ATAGTAC	0.0972
TCATACT	-0.855

— the supplement of paper PMC7826260
